± gives the standard deviation of the averaged measurements. Some of the results follow.
Tested on: PfAP2-I AP2 domain 3 (GST-tagged)
Experiment: gcPBM binding intensity (ln(normalized median fluorescence intensity)); higher = stronger DNA binding
Outline: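 GST-tagged P. falciparum DNA-binding domains, expressed in E. coli (about 25 μg on average), were applied for 1 h to an Agilent 4 × 180k array of primer-extended double-stranded 36-bp intergenic genomic probes plus negative controls. The binding buffer was 1× PBS with 1% milk, 0.2 mg/ml BSA, 0.5% salmon testes DNA and 0.03% Triton X-100. Bound protein was detected with Alexa488 anti-GST antibody and scanned at 488 nm. Binding intensity is the highest Masliner-normalised natural-log median intensity across replicate spots of either probe orientation.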

Sequence	gcPBM binding intensity (ln)
AATATGTGAATATAATCACACACAATACGGAAACAC [CACACA_site8875]	9.015 ± 0.078
AAAGAAGGATAATAATGTACAAGCAAAAAAATAAAA [XGTACX_site466]	8.04 ± 0.8
CTTTTTTTAATGATAACACACATGTTGTGCATAGAC [CACACA_site3270]	9.63 ± 0.14
AAATAATTATTTATCACACATATGTATTTATATATA [CACACA_site4589]	7.66 ± 0.43
ATTCCACCTTAAAACTGTACTTTCTCAATCTTTTAT [XGTACX_site796]	7.86 ± 0.66
CATATATAAATATGTATGCACTTTAACAAAATGTAT	8.89 ± 0.14
ATATTTATTTATATGTGTACTTATGTTTATATAAAA [XGTACX_site4250]	8.02 ± 0.21
ATAAAGTAGATATTTTGTACGCAGGTTGTATATATT [XGTACX_site1464]	8.32 ± 0.71
TACTTTACTAATATATATAGGAGAGTATACATGAAA [CACACA_negctrl_site63]	7.75 ± 0.63
GGAATTATAATAAATGGTACACATAAAAAAAAAAAA [XGTACX_site8343]	8.06 ± 0.54
ATTATGTTATATACACGTACGTGTGCTTTATAATTA [XGTACX_site2728]	10.2 ± 0.61
TAATAAATAGGACACACACACATATATATATATTAT [CACACA_site4891]	8.06 ± 0.3
TTTCTTTTTTTTTTTTGTACATATTTTAATTATTTT [XGTACX_site8676]	7.75 ± 0.42
TATTATATATATAACTGTACGTTTATAATATAAAAA [XGTACX_site3778]	7.75 ± 0.28
TATTTTAATTAATATACACACGCTTATATATATATA [CACACA_site7909]	8.99 ± 0.54
TACAAACTATGATGCACACATATATATCTGTATCCA [CACACA_site4809]	9.035 ± 0.078
AGTGTTAAAAATGAGGGTACATATAAAATACAGTTC [XGTACX_site457]	8.07 ± 0.57
TAATCATTTTAGCTTACACACAAAATTTGGTTATAA [CACACA_site5604]	7.47 ± 0.54
ACAGGATTGGTTCAAACACACATATTATATGACTAT [CACACA_site4536]	7.76 ± 0.68
AGTTTTATATAAGCTTGTACTTAATATTATTAAGTA [XGTACX_site5919]	7.71 ± 0.53
AAAAAAAAAAATCGCTGTACTTCTAAAGGTGTGTTA [XGTACX_site843]	7.79 ± 0.3
CAAACAAACGGACACACACACACACCCAAAAATGAT [CACACA_site5363]	8.06 ± 0.3
TTTGATAAATTATACACACACAATATATATAAAATA [CACACA_site2023]	7.72 ± 0.51

Sequence	gcPBM binding intensity (ln)
ACGGACTTAAAATACACACACACCAAAAAAAAAAAA [CACACA_site7304]	8.12 ± 0.63
AATAATATATAATAATGTACAAAAAAAAAAAAAAAA [XGTACX_site4158]	7.96 ± 0.52
AAGCTTTGGTGTTATGCATGCAATTAAACTATTAGT [TGCATGCA_site277]	8.13 ± 0.81
TTTTATTTTTTAGTAGTACACACTTTTTGTACCTTT [CACACA_site599]	8.3 ± 0.34
AAATAATACCAAATGTGTACTTATTTCACTAATAGA [XGTACX_site7571]	7.69 ± 0.49
ATATATACTTATATTTGTACACAAAGGTATCTCTAG [XGTACX_site3805]	7.74 ± 0.63
GGAATAATAAAATTATGTACATAAGAATCATATACT [XGTACX_site6810]	7.69 ± 0.54
AAAGATTGCGATGGTTGTACTTTTCTATATTTTTTT [XGTACX_site3492]	7.79 ± 0.79
CTAAAATACGAACACACACACACATATAAATAAATA [CACACA_site7872]	7.82 ± 0.42
TATACTTCTTATTAAATGAGTAGTATATATTATATA [TGCATGCA_negctrl_site299]	7.43 ± 0.18
CTATTTCATAAACACACACACACAAACAAACATATA [CACACA_site8234]	8.03 ± 0.26
AAGTAGTGTTAATACTGTACTTATATTTTTTATTAT [XGTACX_site8264]	7.74 ± 0.18
TTGATATTTTTTTTATGTACACATGTTCATATTTTT [XGTACX_site8095]	7.82 ± 0.49
ATTTAAAAAAGAAAGGTGCATTTCAATAATGTAAAA [GTGCAC_site9585]	10.5 ± 0.35
TCATCTTTTATATGTTGTACGTATTTTCATTTATAT [XGTACX_site4855]	7.96 ± 0.45
TCACATATTATCTTTACACACTATAAATAAGTTTTA [CACACA_site7335]	7.88 ± 0.63
TTTTTTTCTTTTTGAGGTACGCATTATTTTATTTGT [XGTACX_site6996]	7.71 ± 0.36
ATAATTTGATGGTTAACACACATATAGATTATAGAT [CACACA_site7200]	7.86 ± 0.64
AAAAAAATGAAACACACACACACATATATATATATA [CACACA_site1043]	9.43 ± 0.57
AAACAATTACACATATGTATGTATATATATATATAT [TGCATGCA_negctrl_site536]	9.12 ± 0.43
ACAAAGTTTATAGAACGTACATACTTACACATATTT [XGTACX_site556]	7.61 ± 0.57
TTATTATATATATCTCGTACGTGTATACGCCTACCA [XGTACX_site8375]	7.76 ± 0.65

Source: the supplement of paper PMC11417369
